The whole screen tested about 45,000 compounds, of which about 65 (0.1%) were called active. Calls come from the whole dose curve; as a rule, active = well fitted activation curve with a large enough effect; inconclusive = small, poorly fitted or top-dose-only effect; inactive = no such curve, though single readings can be large or run the other way. This is one part of the list.
These compounds were tested against Galactocerebrosidase (Homo sapiens) (UniProt P54803) (assay: A Novel Cell-Based Assay to Identify Small Molecules for B -Galactocerebrosidase). Settings: 145M-Twi-hGALC-G270D cells (Twitcher mouse brain line with human GALC G270D), HMU-beta-Gal fluorescence, 48 h; series mostly up to 57.5 µM; activation: at the top concentration.
UniProt P54803, sequence (P54803 whole entry, looked up): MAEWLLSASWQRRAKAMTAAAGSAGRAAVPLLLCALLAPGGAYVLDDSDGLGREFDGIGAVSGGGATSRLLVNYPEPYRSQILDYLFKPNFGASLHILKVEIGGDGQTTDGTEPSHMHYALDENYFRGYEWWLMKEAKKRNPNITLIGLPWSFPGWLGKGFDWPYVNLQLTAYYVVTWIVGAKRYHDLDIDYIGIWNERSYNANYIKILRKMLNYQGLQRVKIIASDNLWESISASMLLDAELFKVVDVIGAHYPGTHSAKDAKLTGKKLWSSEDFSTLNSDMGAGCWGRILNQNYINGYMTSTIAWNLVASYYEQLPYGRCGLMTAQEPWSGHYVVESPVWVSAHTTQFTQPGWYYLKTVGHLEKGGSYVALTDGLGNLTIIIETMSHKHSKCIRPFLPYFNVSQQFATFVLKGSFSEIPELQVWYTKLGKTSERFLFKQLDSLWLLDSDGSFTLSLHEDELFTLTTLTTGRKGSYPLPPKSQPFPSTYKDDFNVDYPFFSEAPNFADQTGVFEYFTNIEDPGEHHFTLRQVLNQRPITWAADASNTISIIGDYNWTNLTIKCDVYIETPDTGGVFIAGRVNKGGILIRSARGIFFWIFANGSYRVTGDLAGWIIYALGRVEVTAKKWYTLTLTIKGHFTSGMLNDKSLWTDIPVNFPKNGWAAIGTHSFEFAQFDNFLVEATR
Outline: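 Live 145M-Twi cells (Twitcher mouse brain-derived, GALC-null) stably expressing human GALC-G270D, with a wild-type GALC line, were compound-treated. Residual GALC activity was then read as fluorescence from 0.1 mM final HMU-β-gal at pH 5.2; higher signal means activation.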
Note: nearly all actives have a fitted effect of over 65% in size.
Potency is the fitted concentration of half-maximal effect.
Throughout, for activation: 0% is about no effect.

activation, inactive:
CCCOc1ccc(CC2C(=O)Nc3ccc(Br)cc32)cc1 (stereo not drawn) -4.47%
CC(=O)Nc1ccc(S(=O)(=O)NC2(C(F)(F)F)C(=O)Nc3c2c(=O)[nH]c(=O)n3-c2ccc(C)cc2)cc1 (stereo not drawn) -15.1%
CCc1cccc(NC(=O)CN2C(=O)COc3ccc(S(=O)(=O)N4CCC(C)CC4)cc32)c1 -7.34%
CCOCCCNC(=O)C(c1ccc(OC)cc1)N(Cc1cccs1)C(=O)CNC(C)=O (stereo not drawn) -12.2%
Cc1ccc(C(=O)CC2(O)C(=O)N(CCc3ccccc3)c3ccc(Br)cc32)cc1 (stereo not drawn) -34.2%
Cc1ccc(Cn2c(C)c3cnn(CC(=O)N4CCN(c5cc(C)ccc5C)CC4)c(=O)c3c2C)cc1 5.25%
COc1cccc(-n2c(C)nc3c(cnn3-c3ccc(C)c(C)c3)c2=O)c1 -11.5%
O=c1oc2ccc(Cl)cc2cc1-c1nc(-c2cccs2)no1 -11.6%
CCOC(=O)c1cc2c(=O)n3ccccc3nc2n(CCCOC)c1=NC(=O)c1cc2ccccc2o1 -15.7%
COc1ccc(NC(=O)Cn2c(=O)n(Cc3ccccc3Cl)c(=O)c3cc(OC)c(OC)cc32)cc1 -15.1%
Cc1ccc(-n2nc3c(N4CCCC(C(=O)NCc5ccccc5C)C4)nnc(C)c3c2C)cc1 (stereo not drawn) -24.6%
COC(=O)c1c(NC(=O)CS(=O)(=O)c2ccc(C)cc2)sc2c1CCCCC2 -23%
CCOc1cc2[nH]c(=O)n(CCC(=O)N3CCN(c4ccccc4)CC3)c(=O)c2cc1OCC -11.4%
Cc1ccc2scc(N3CCCC(C)C3)c(=O)c2c1 (stereo not drawn) -12.5%
O=C(c1ccc(Cl)cc1)n1nc(-c2ccccc2)nc1NCc1ccco1 -27.4%
CCCn1c(=N)c(C(=O)NC(C)c2ccccc2)cc2c(=O)n3ccccc3nc21 (stereo not drawn) -12%
COc1cccc(C(=O)NCc2cn3cccc(C)c3n2)c1 -12.5%
Cn1c(=O)n(C)c2cc(CNCc3ccccc3Cl)ccc21 -12%
Cc1ccc(NC(=O)N2CCN3CCCCC3C2)cc1C (stereo not drawn) -1.37%
Cc1c(Cl)cccc1-n1ncc(C(=O)NC2CCCC2)c1C1CCN(C(=O)OC(C)(C)C)CC1 -3.02%
CCOc1ccc(NC(=O)c2nn(C)c3c2COc2ccccc2-3)cc1 -2.17%
CC(C)c1ccc(NC(=O)CSC2=Nc3ccccc3C3=NC(CCC(=O)NCc4cccs4)C(=O)N23)cc1 (stereo not drawn) -1.93%
COc1ccc2c(c1)c1c(c(=O)n(-c3cc(Cl)ccc3C)c(=O)n1Cc1ccc(F)cc1)n2C 0.911%
COc1ccc(-c2[nH]c(-c3ccc(C)cc3)nc2SCC(=O)NCC2CCCO2)cc1 (stereo not drawn) -21.9%
COc1cccc(NC(=O)CSc2nc(=O)[nH]c3c2CCCC3)c1 -16.8%
CCSc1ncc(Cl)c(C(=O)Nc2cc(C)ccc2C)n1 -13%
CCCOC(=O)c1c(-c2ccccc2)c(-c2ccccc2)nn(C)c1=O -9.29%
Cc1cc(C)c(-c2n[nH]c3c2C(c2ccccc2F)N(CCO)C3=O)c(O)c1 (stereo not drawn) -9.56%
CC(=O)c1c(C)n(-c2cccc(Cl)c2)c2ccc(OC(=O)c3ccccc3)cc12 1.82%
O=C(NCCc1ccc(F)cc1)C(=O)NCC(c1cccs1)S(=O)(=O)c1cccs1 (stereo not drawn) 2.31%
COc1ccc(-c2cc(-c3ccccc3)nc3c2COc2ccc(Cl)cc2-3)cc1 -9.9%
O=C1C2=C(Nc3ccccc3SC2c2c(F)cccc2Cl)c2ccccc21 (stereo not drawn) -11.5%
COc1ccc(NC(=O)Nc2cn(CC(C)C)c(=O)c3ccccc23)c(OC)c1 -18.1%
Cn1cc[nH]c1=S -12.1%
CCOC(=O)N1CCC(NC(=O)c2cnn(-c3cccc(C)c3)c2-n2cccc2)CC1 -6.29%
CC(=O)N1CCCc2cc(S(=O)(=O)N3CCC(C(=O)NC4CCCCC4)CC3)ccc21 -17.4%
CC(C)(C)OC(=O)N1CCC(c2c(C(=O)N3CCN(C4CCCCC4)CC3)cnn2-c2cccc(Cl)c2)CC1 -17.1%
CCN1C(=O)C(O)(c2c(C)[nH]c3ccccc23)c2ccccc21 (stereo not drawn) -22.3%
COc1ccc(NC(=O)CSC2=Nc3ccccc3C3=NC(CCC(=O)NCCc4ccccc4)C(=O)N23)cc1 (stereo not drawn) -5.97%
Cc1oc2ncn(C)c(=O)c2c1C(=O)N(C)c1ccccc1F -2.79%
COC(=O)c1ccc(NS(=O)(=O)c2ccc3[nH]c4c(c3c2)CCCCC4)cc1 -27.6%
O=C(NCc1ccccc1Cl)C1CCCN(c2nc3ccccc3n3cccc23)C1 (stereo not drawn) -16.9%
Cc1ccc(C)c(S(=O)(=O)NCC(c2ccc(N(C)C)cc2)N2CCOCC2)c1 (stereo not drawn) -9.78%
Cc1cccc(-n2cc(-c3ccccc3)nc2SCC(=O)Nc2ccccc2Cl)c1 -7.32%
Cc1oc2ncn(CC(C)C)c(=O)c2c1C(=O)Nc1ccc(Cl)cn1 -14.4%
Cc1ccc(C)c(NC(=O)C(C)N(c2ccccc2)S(C)(=O)=O)c1 (stereo not drawn) -5.69%
CC1=C(C(=O)Nc2ccc(C)cc2C)C(c2ccc(C(C)C)cc2)n2nc(C(F)(F)F)nc2N1 (stereo not drawn) -23.4%
COc1ccc(-n2c(-c3ccc(Cl)cc3)cc3c2CC(C)(C)CC3=O)c(OC)c1 -17.9%
CCOC(=O)c1sc(NC(=O)c2nc(SC)ncc2Cl)c(C(=O)OCC)c1C -8.58%
Cc1cccc(OCCn2nnc3sc4c(c3c2=O)CCCC4)c1 -4.11%
CCOc1ccc(CNCCNC(=O)c2nonc2N)cc1 7.94%
CC(C)c1ccc(NS(=O)(=O)c2ccc3[nH]cc(C(=O)NC4CCCCC4)c(=O)c3c2)cc1 0.671%
CNC(=O)c1c(NC(=O)c2cc(=O)c3ccccc3o2)sc2c1CCC2 -22.6%
CCCCNC(=O)CSc1c2c(nc3ccc(Cl)cc13)CCCC2 -10.8%
COc1ccc(-c2nc3ccccc3s2)cc1NC(=O)c1ccccc1OC -3.23%
Cc1cccc(C)c1NC(=O)c1ccc2nc(CCc3ccccc3)oc2c1 -15.6%
Cc1cccc(NC(=O)c2sc3cccc(Cl)c3c2Cl)c1 -4.43%
Cc1c(C(=O)Nc2ccc(F)cc2F)nnn1-c1ccccc1Br -18.9%
COCCCNC(=O)c1c(C)nn(-c2ccc(F)cc2)c1-n1cccc1 -2.02%
CC1=C(C(=O)Nc2ccccc2)C(c2ccncc2)n2nc(SCc3ccccc3)nc2N1 (stereo not drawn) -11.9%
CC(C)c1ccc(NC(=O)CCS(=O)(=O)c2ccc(Br)s2)cc1 9.38%
COc1cccc(-c2cc(C(F)(F)F)nc(NCc3ccc(F)cc3)n2)c1 -5.26%
Cn1c(=O)c2sccc2n2c(CCCC(=O)Nc3ccc(F)c(F)c3)nnc12 0.49%
COc1cccc(-c2nc(S(=O)(=O)c3ccccc3)c(NCc3ccccc3)o2)c1 -16.5%
COc1ccc(CCNC(=O)c2ccc3c(c2)nc2n3CCOC2)cc1OC -14.6%
Cc1ccc(C(=O)COC(=O)C(Cc2c[nH]c3ccccc23)NC(=O)c2ccc(Br)cc2)cc1 (stereo not drawn) -14.7%
COc1ccc(NC(=O)C2=C(C)Nc3nc(SC)nn3C2c2cc(OC)ccc2OC)cc1 (stereo not drawn) 3.59%
Cc1nnc(N2CCC(C(=O)NCc3ccc(N(C)C)cc3)CC2)c2nn(-c3ccccc3)c(C)c12 -25.3%
O=C(NCCCO)C(=O)Nc1c2c(nn1-c1ccc(F)cc1)CSC2 -7.04%
CCc1nn(CC(=O)NCc2cccc(OC)c2OC)c(=O)c2cc3occc3n12 -9.51%
Cc1cc2oc(C(=O)Nc3cccc(-c4nc5ccccc5o4)c3)c(C)c2cc1Cl -12.3%
O=C(Nc1ccc(Cl)cc1)c1ccc2c(c1)N(Cc1ccccc1)C(=O)c1ccccc1S2(=O)=O -21.3%
COc1ccc(OC)c(CNC(=O)Cn2nc(C)c3c(C)n(-c4ccccc4)nc3c2=O)c1 -0.925%
CCOc1ccccc1CNC(=O)CC(C)n1ccc(C)n1 (stereo not drawn) -7.18%
CN(CC(=O)Nc1cccc(C#N)c1)S(=O)(=O)c1cc2c(cc1Cl)NC(=O)CO2 -1.7%
O=C(CSc1nc2ccccc2n1Cc1cccc(Cl)c1)N1CCN(c2ccc(F)cc2)CC1 -12.1%
c1ccc(N2CCN(c3ncnc4c3nc3n4CCCC3)CC2)cc1 -5.91%
COc1cc(C(=O)NCc2ccc3c(c2)CCN3C(=O)c2ccncc2)cc(OC)c1OC -35.1%
Cc1ccc(NC(=O)NCCc2c(C)nn(C)c2C)c(Cl)c1 -1.86%
CCCCSc1ncnc2c1sc1nc(N3CCOCC3)c3c(c12)CCCC3 -19.5%
COCCCNC(=O)CN1C(=O)c2c(c3ccccc3n2C)C1c1ccc(OC)cc1 (stereo not drawn) -11.3%
COc1ccc(-c2noc(CSCC(=O)Nc3ccc(C)cc3Br)n2)cc1OC -0.65%
Fc1ccc(CNc2nc3c(-c4ccc(F)cc4)nnn3c3ccccc23)cc1 4.34%
CC1=C(C(=O)Nc2ccc(C)cc2)C(c2ccccc2Cl)n2nnnc2N1 (stereo not drawn) 4.27%
CCOc1ccc(CNC(=O)COc2cc(=O)n(C)c3ccccc23)cc1 -15.6%
COc1cccc(NC(=O)c2cc(CN3CCOCC3)on2)c1 -15.4%
CCC(=O)N1CCc2cc(Br)cc(S(=O)(=O)CCC(=O)NCc3ccccc3)c21 -11.2%
O=c1ccc2cc(S(=O)(=O)N3CCCC3)ccc2[nH]1 3.17%
CCCCCCCCCCCCCCCC[N+](C)(C)Cc1ccccc1 -13.3%
COc1ccccc1CNC(=O)c1c2c(nc3ccccc13)C(=O)N(C1CCCCC1)C2 -13.6%
Cc1nn2c(=O)cc(COC(=O)c3ccc(C(C)(C)C)cc3)nc2s1 -17.7%
CSc1cccc(NC(=O)CN(C)S(=O)(=O)c2ccc3c(c2)n(C)c(=O)c(=O)n3C)c1 -4.05%
COc1ccc(CCNC(=O)c2ccc(CS(=O)(=O)c3ccc(C)cc3)o2)cc1OC -16.7%
COc1cccc(N2CCN(S(=O)(=O)c3ccc(-c4cnc(C5CC5)o4)cc3)CC2)c1 -9.29%
CCOC(=O)C1CCCN(CCC(=O)Nc2ccc(OC)cc2OC)C1 (stereo not drawn) -6.16%
O=C(Nc1c(C(=O)N2CCN(c3ccc(F)cc3)CC2)oc2ccccc12)c1ccco1 -13.6%
COc1ccc(CNC(=O)CCc2c(C)nc3c(c2C)c(=O)n(C)c(=O)n3C)cc1 -0.136%

Potency, active:
COc1cccc(/C=C/c2nc(C#N)c(N(C)Cc3ccccc3)o2)c1 25.1 µM
